The other results are listed elsewhere or left out.
What was measured:
HSkMC = human skeletal muscle cells; assay: cytotoxicity call (relative viability < 0.9); settings: 10 µM
HepG2 = assay: cytotoxicity call (relative viability < 0.9); settings: 10 µM
S. aureus RN4220 = assay: growth inhibition call (relative growth <= 0.2); settings: 50 µM

Structure (SMILES) | cytotoxicity call (HSkMC) | cytotoxicity call (HepG2) | growth inhibition call (S. aureus RN4220)
C[C@H]1CN([C@@H](C)CO)C(=O)c2cc(C#Cc3ccccc3)cnc2O[C@H]1CN(C)C(=O)CCN1CCCCC1 | inactive | active | inactive
C[C@@H]1CN([C@H](C)CO)C(=O)Cc2cc(NC(=O)CCCCCC(=O)Nc3ccccc3N)ccc2O[C@@H]1CN(C)Cc1ccc(Oc2ccccc2)cc1 | active | active | inactive
C[C@H]1CN([C@@H](C)CO)C(=O)c2cccc(NS(=O)(=O)c3ccccc3)c2O[C@H]1CN(C)Cc1ccncc1 | inactive | inactive | inactive
C[C@@H]1CN([C@@H](C)CO)C(=O)Cc2cc(NC(=O)Nc3ccc4c(c3)OCO4)ccc2O[C@@H]1CN(C)S(C)(=O)=O | inactive | inactive | inactive
CCCNC(=O)Nc1ccc2c(c1)C(=O)N(C)C[C@@H](OC)[C@H](C)CN(Cc1ccc(-c3ccccn3)cc1)[C@H](C)CO2 | inactive | inactive | inactive
C[C@H](CO)N1C[C@H](C)[C@H](CN(C)S(=O)(=O)c2ccc(Cl)cc2)Oc2ccc(N(C)C)cc2C1=O | inactive | inactive | inactive
C[C@@H]1CCCCO[C@H](CN(C)C(=O)NC2CCCCC2)[C@@H](C)CN([C@H](C)CO)C(=O)c2cc(NC(=O)NC3CCCCC3)ccc2O1 | inactive | inactive | inactive
COc1ccc(S(=O)(=O)Nc2ccc3c(c2)C(=O)N([C@H](C)CO)C[C@@H](C)[C@H](CN(C)C(=O)Nc2cccc4ccccc24)O3)cc1 | inactive | inactive | inactive
C[C@@H]1CN([C@@H](C)CO)C(=O)c2cccc(NS(=O)(=O)c3cn(C)cn3)c2O[C@@H]1CN(C)S(C)(=O)=O | inactive | inactive | inactive
COc1ncnc(NS(=O)(=O)c2ccc(N)cc2)c1OC | inactive | inactive | inactive
C[C@H]1CN([C@@H](C)CO)C(=O)c2cc(C#CCc3ccccc3)cnc2O[C@H]1CN(C)C(=O)Cc1cccnc1 | inactive | inactive | inactive
C[C@@H]1CN([C@@H](C)CO)C(=O)c2cc(NC(=O)C3CC3)ccc2O[C@H]1CN(C)Cc1ccc(C(=O)O)cc1 | inactive | inactive | inactive
CC(C)NC(=O)Nc1cccc2c1O[C@@H](CN(C)Cc1ccc(C(=O)O)cc1)[C@@H](C)CN([C@H](C)CO)C2=O | inactive | inactive | inactive
C[C@H]1CN([C@@H](C)CO)C(=O)c2cccc(NC(=O)C3CC3)c2O[C@H]1CN(C)S(=O)(=O)c1cccs1 | inactive | inactive | inactive
CO[C@@H]1CN(C)C(=O)c2ccc(NC(=O)Nc3ccc(Cl)cc3)cc2OC[C@H](C)N(C(=O)Nc2c(C)noc2C)C[C@H]1C | inactive | inactive | inactive
C[C@H](CO)N1C[C@H](C)[C@@H](CN(C)Cc2ccc(-c3ccccc3)cc2)Oc2c(NC(=O)Nc3cccc4ccccc34)cccc2C1=O | inactive | inactive | inactive
COc1ccc(S(=O)(=O)Nc2ccc3c(c2)C(=O)N([C@H](C)CO)C[C@H](C)[C@@H](CN(C)C(=O)Nc2c(C)noc2C)O3)cc1 | inactive | inactive | inactive
O=C1[C@@H]2[C@@H](C(=O)N1CCO)[C@@H]1C=C[C@@H]2C1 | inactive | inactive | inactive
COc1ccc(C#Cc2ccc([C@@H]3[C@H](CO)N4CCCCN(S(=O)(=O)c5cn(C)cn5)C[C@@H]34)cc2)cc1 | inactive | active | inactive
COc1ccc(S(=O)(=O)Nc2ccc3c(c2)C(=O)N([C@@H](C)CO)C[C@H](C)[C@H](CN(C)S(=O)(=O)c2cccs2)O3)cc1 | inactive | inactive | inactive
Cc1noc(C)c1S(=O)(=O)Nc1ccc2c(c1)C(=O)N([C@@H](C)CO)C[C@@H](C)[C@H](CN(C)Cc1ccc3c(c1)OCO3)O2 | inactive | inactive | inactive
Cn1c(=O)c2c(ncn2C[C@@H](O)CO)n(C)c1=O | inactive | inactive | inactive
C[C@@H]1CN([C@@H](C)CO)C(=O)c2cccc(NS(=O)(=O)c3ccc(Cl)cc3)c2O[C@@H]1CN(C)S(C)(=O)=O | inactive | inactive | inactive
CC(/C=C/C(=O)NO)=C\c1ccccc1OCc1cn(CCNC(=O)[C@@H](NS(=O)(=O)c2ccc(C)cc2)C(C)C)nn1 | inactive | inactive | inactive
C[C@@H]1CN([C@@H](C)CO)C(=O)c2cccc(NS(=O)(=O)c3ccc(F)cc3)c2O[C@@H]1CN(C)C(=O)Nc1cccc2ccccc12 | inactive | inactive | inactive
COc1ccc(S(=O)(=O)Nc2ccc3c(c2)CC(=O)N([C@@H](C)CO)C[C@@H](C)[C@H](CN(C)C(=O)NC(C)C)O3)cc1 | inactive | inactive | inactive
C[C@@H]1CN([C@H](C)CO)C(=O)Cc2cc(NC(=O)Cc3cn(C)c4ccccc34)ccc2O[C@H]1CN(C)C | inactive | inactive | inactive

Structure (SMILES) | cytotoxicity call (HSkMC) | cytotoxicity call (HepG2) | growth inhibition call (S. aureus RN4220)
O=C(CCC(=O)N1CCOCC1)Nc1c(F)c(F)nc(N2CCOCC2)c1F | inactive | inactive | inactive
COc1ccc(cc1)CN1C[C@]2(CN(C2)S(=O)(=O)c2cn(cn2)C)c2c([nH]c3cc(ccc23)OC)[C@@H]1CO | inactive | inactive | inactive
COc1ccc(S(=O)(=O)Nc2ccc3c(c2)C(=O)N([C@@H](C)CO)C[C@H](C)[C@H](CN(C)C(=O)Nc2c(C)noc2C)OCCCC[C@@H](C)O3)cc1 | inactive | inactive | inactive
C[C@@H]1CN([C@H](C)CO)C(=O)c2cccc(NC(=O)Nc3ccc(F)cc3)c2O[C@@H]1CN(C)Cc1ccc(C(=O)Nc2ccccc2N)cc1 | inactive | inactive | inactive
C[C@@H]1CCCCO[C@H](CN(C)Cc2ccc3c(c2)OCO3)[C@H](C)CN([C@@H](C)CO)C(=O)c2cc(NC(=O)Nc3ccc(F)cc3)ccc2O1 | inactive | active | inactive
C[C@@H]1CCCCO[C@@H](CN(C)Cc2ccncc2)[C@H](C)CN([C@H](C)CO)C(=O)c2cc(NC(=O)CCC(F)(F)F)ccc2O1 | inactive | inactive | inactive
COc1ccc(S(=O)(=O)Nc2ccc3c(c2)[C@H]2C[C@H](CC(=O)NCC4CC4)O[C@H](CO)[C@H]2O3)cc1 | inactive | inactive | inactive
C[C@H](CO)N1C[C@H](C)[C@H](CN(C)C(=O)c2ccncc2)Oc2ncc(C#CC3CCCCC3)cc2C1=O | inactive | inactive | inactive
C[C@@H]1CN([C@@H](C)CO)C(=O)c2cc(NC(=O)Nc3ccccc3)ccc2O[C@@H](C)CCCCO[C@H]1CN(C)S(=O)(=O)c1ccc(Cl)cc1 | inactive | active | inactive
O=S1(=O)CCN(CC2CCCC2)CC1 | inactive | inactive | inactive
COc1cccc(S(=O)(=O)Nc2ccc3c(c2)[C@H]2C[C@@H](CC(=O)NC4CCCCC4)O[C@H](CO)[C@H]2O3)c1 | inactive | inactive | inactive
COCCC(=O)N1CC[C@]2(CCOC2)C1 | inactive | inactive | inactive
Cc1ccc(S(=O)(=O)N(C)C[C@@H]2Oc3cc(C#Cc4ccccc4)ccc3S(=O)(=O)N([C@@H](C)CO)C[C@H]2C)cc1 | inactive | inactive | inactive
C[C@@H]1CN([C@@H](C)CO)S(=O)(=O)c2ccc(-c3cncnc3)cc2O[C@H]1CN(C)C(=O)C1CCCCC1 | inactive | inactive | inactive
C[C@H]1CN([C@@H](C)CO)S(=O)(=O)c2ccc(-c3ccc(C(=O)N(C)C)cc3)cc2O[C@@H]1CN(C)C(=O)C1CC1 | inactive | inactive | inactive
C[C@@H]1CN([C@H](C)CO)C(=O)c2cc(NC(=O)Nc3ccccc3)ccc2O[C@@H](C)CCCCO[C@H]1CN(C)C(=O)Cc1ccccc1 | inactive | inactive | inactive
CC(=O)N1Cc2cc(C(=O)NCc3cccc(F)c3)nc(-c3cccc(C4=CCCCC4)c3)c2[C@@H]1CCO | inactive | inactive | inactive
C[C@@H]1CCCCO[C@@H](CN(C)C(=O)Cc2ccccc2)[C@H](C)CN([C@@H](C)CO)C(=O)c2cc(NC(=O)Nc3ccc(F)cc3)ccc2O1 | inactive | inactive | inactive
O=C(C[C@H]1C=C[C@@H](NC(=O)CN2CCOCC2)[C@H](CO)O1)NC1CCCCC1 | inactive | inactive | inactive
COc1ccc(NC(=O)N(C)C[C@@H]2Oc3cc(C#CCN(C)C)ccc3S(=O)(=O)N([C@H](C)CO)C[C@@H]2C)cc1 | inactive | inactive | inactive
C[C@@H]1CCCCO[C@H](CN(C)Cc2ccc(Cl)c(Cl)c2)[C@@H](C)CN([C@H](C)CO)C(=O)c2cc(NC(=O)Nc3ccc(F)cc3)ccc2O1 | inactive | active | inactive
C[C@@H]1CCCCO[C@H](CN(C)S(=O)(=O)c2ccc(Cl)cc2)[C@H](C)CN([C@@H](C)CO)C(=O)c2cc(NC(=O)NC3CCCCC3)ccc2O1 | inactive | inactive | inactive
CO[C@H]1CN(C)C(=O)c2cc(NS(C)(=O)=O)ccc2OC[C@@H](C)N(C(=O)C2CCOCC2)C[C@H]1C | inactive | inactive | inactive
CN(C)CCCNC(=O)C[C@H]1C=C[C@H](NC(=O)Cc2cccnc2)[C@@H](CO)O1 | inactive | inactive | inactive
Cc1ccc(S(=O)(=O)Nc2ccc3c(c2)C(=O)N([C@@H](C)CO)C[C@@H](C)[C@H](CN(C)Cc2ccc(C(F)(F)F)cc2)OCCCC[C@@H](C)O3)cc1 | inactive | active | inactive
C[C@@H]1CN([C@H](C)CO)C(=O)Cc2cc(NS(=O)(=O)c3ccc(F)cc3)ccc2O[C@@H]1CN(C)C(=O)Nc1cccc2ccccc12 | inactive | inactive | inactive
C[C@@H]1CN([C@@H](C)CO)S(=O)(=O)c2ccc(-c3cncnc3)cc2O[C@@H]1CN(C)C(=O)Cc1ccncc1 | inactive | inactive | inactive
